{
  "source": "PubChem BioAssay AID1865",
  "about": "(National Center for Advancing Translational Sciences (NCATS), 2009)",
  "note": "The whole screen tested about 280,000 compounds, of which about 540 (0.19%) were called active. The inconclusive results got no clear call from the source; some entries with a clear call stand among them for comparison. The call rests on the fitted dose curve; in most records, active means well fitted activation curve with a large enough effect; inconclusive means small, poorly fitted or top-dose-only effect; inactive means flat fitted curve, though single readings scatter. Potencies beside an inconclusive call are fits to weak or partial responses and may not hold up. Potency means the concentration at half of the fitted maximal effect; tags describe the fitted curve by direction and shape.",
  "data": [
    {"assay": "Quantitative High-Throughput Screen for Regulators of Epigenetic Control; further: nearly all actives have a fitted effect of over 60% in size; on GFP activation: % of control where 0% means no effect", "conditions": "murine LDR cells, GFP reporter derepression, 30 h; GFP activation: at 53.9 µM (top of the series)", "procedure,_shortened": "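Murine LDR cells carrying a silenced, genomically integrated CMV-driven GFP reporter were exposed to compound for 30 hours at 37 C. After PBS washes, GFP-positive cells (20–120 um objects) were counted by laser-scanning microplate cytometry.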", "values": [
      {"smiles": "CC(/C=C1\\SC(=S)N(NC(=O)c2ccc(O)cc2)C1=O)=C\\c1ccccc1", "GFP activation": "inactive: 0.971%"},
      {"smiles": "CC(C)C[C@H](NC(=O)c1nc[nH]c1C(=O)N1CCN(C(=O)OC(C)(C)C)CC1)C(=O)OCc1ccccc1", "GFP activation": "inactive: 2.5%"},
      {"smiles": "O=C(Nc1c2c(nc3ccccc13)CCCC2)c1ccccc1Br", "Potency": "inconclusive: 25.1 µM [activator, single point]"},
      {"smiles": "CCOc1ccc(-c2cc(C(=O)NCCc3ccc(OC)c(OC)c3)c3c(-c4ccc(F)cc4)[nH]nc3n2)cc1", "Potency": "inconclusive: 35.5 µM [activator, single point]"},
      {"smiles": "COc1ccc(CCNC(=O)c2cc3c(=O)n(C)c4ccccc4c3s2)cc1OC", "Potency": "inconclusive: 35.5 µM [activator, single point]"},
      {"smiles": "Cc1ccccc1CNC(=O)CCC(=O)N1CCSc2ccccc21", "GFP activation": "inactive: -1%"},
      {"smiles": "Cc1ccc(Nc2nc3ccc(C(=O)c4ccccc4)cc3n3c(C)nnc23)c(C)c1", "Potency": "inconclusive: 7.94 µM [activator, partial curve]"},
      {"smiles": "CC[N+]1=C(C)C(C)(C)c2cc(C)ccc21", "Potency": "inconclusive: 31.6 µM [activator, single point]"},
      {"smiles": "COC(=O)C1=C(C)N(CCc2ccccc2)C(=O)/C1=C\\c1ccco1", "Potency": "inconclusive: 31.6 µM [activator, single point]"},
      {"smiles": "CCOC(=O)COc1ccc(C)cc1C(=O)c1ccn2nc(-c3ccc(Cl)cc3)cc2n1", "Potency": "inconclusive: 20 µM [activator, single point]"},
      {"smiles": "CCOC(=O)C(=Cc1ccccc1OC)C(=O)OCC", "Potency": "active: 22.4 µM"},
      {"smiles": "COc1ccc(Nc2nc3c(C)cccc3cc2C#N)cc1", "Potency": "inconclusive: 35.5 µM [activator, single point]"},
      {"smiles": "CCCCOC(=O)Cn1c2ccc(OC)cc2c2nc3ccccc3nc21", "Potency": "inconclusive: 5.62 µM [activator, full curve]"},
      {"smiles": "CC(C)N1CN=C(Nc2nc3ccccc3o2)NC1", "GFP activation": "inactive: -2.25%"},
      {"smiles": "CC1(C)Cc2c(sc3nnn(Cc4ccc(Cl)cc4)c(=O)c23)CO1", "Potency": "inconclusive: 31.6 µM [activator, single point]"},
      {"smiles": "CCN(CC)S(=O)(=O)c1ccc(N=Cc2c(C)c(C#N)c(=O)n(C)c2O)cc1", "Potency": "inconclusive: 31.6 µM [activator, single point]"},
      {"smiles": "CC(=O)O[C@H]1C[C@H]2CC[C@@H]3[C@H]4C[C@@H]([N+]5(C)CCCCC5)[C@@H](OC(C)=O)[C@]4(C)CC[C@@H]3[C@@]2(C)C[C@@H]1[N+]1(C)CCCCC1", "GFP activation": "inactive: 1.05%"},
      {"smiles": "CCOc1ccccc1NC(=O)C(=O)/C=C(\\O)c1cc(OC)ccc1OC", "GFP activation": "inactive: 2%"},
      {"smiles": "Cc1ccc(-c2noc(C3CCCN(S(=O)(=O)c4ccc(S(=O)(=O)N(C)C)cc4)C3)n2)o1", "note": "(configuration not stated)", "Potency": "inconclusive: 31.6 µM [activator, single point]"},
      {"smiles": "Cn1cc(/C=C(\\C#N)C(=O)Nc2cccc([N+](=O)[O-])c2)c2ccccc21", "Potency": "inconclusive: 6.31 µM [activator, full curve]"},
      {"smiles": "CCC(C)(C)NC(=O)C(c1cccc(OC)c1OC)N(CCC(C)C)C(=O)CCC(=O)Nc1cc(C)on1", "note": "(configuration not stated)", "Potency": "inconclusive: 12.6 µM [activator, single point]"},
      {"smiles": "Cc1cc(C)c2c(N)c3ccccc3nc2n1", "Potency": "inconclusive: 25.1 µM [activator, single point]"},
      {"smiles": "CCCCS(=O)(=O)c1oc(-c2ccc(F)cc2)nc1S(=O)(=O)c1ccc(C)cc1", "Potency": "inconclusive: 5.62 µM [activator, single point]"},
      {"smiles": "Cc1ccc(CCNC(=O)C2CC(c3cc(C(F)(F)F)cc(C(F)(F)F)c3)=NO2)cc1", "note": "(configuration not stated)", "Potency": "inconclusive: 2.82 µM [activator, partial curve]"},
      {"smiles": "CCN(CC)c1ccc(/C=C/C(=O)C2C(=O)C=C(C)OC2=O)cc1", "note": "(configuration not stated)", "Potency": "active: 11.2 µM"},
      {"smiles": "Cc1sc(-c2cc3c([nH]c2=O)CC(c2ccccc2)CC3=O)nc1-c1ccc(Cl)cc1", "note": "(configuration not stated)", "Potency": "active: 17.8 µM"},
      {"smiles": "O=C(NCc1ccc(F)cc1Cl)C1CCN(S(=O)(=O)N2CCC3(CC2)OCCO3)CC1", "Potency": "inconclusive: 20 µM [activator, single point]"},
      {"smiles": "O=c1c2cn[nH]c2nc(SCc2c(F)cccc2F)n1-c1ccc(Cl)cc1", "Potency": "inconclusive: 17.8 µM [activator, single point]"},
      {"smiles": "O=C1N/C(=N\\N=C\\c2ccco2)SC1Cc1ccccc1[N+](=O)[O-]", "note": "(configuration not stated)", "Potency": "inconclusive: 28.2 µM [activator, single point]"},
      {"smiles": "CC(C)(C)NNC(=S)Nc1cccc(F)c1", "Potency": "inconclusive: 31.6 µM [activator, single point]"},
      {"smiles": "CCOC(=O)c1c(C)[nH]c(C)c1S(=O)(=O)N1CCC(C(=O)NCc2ccccc2Cl)CC1", "GFP activation": "inactive: -2.67%"},
      {"smiles": "CCc1ccccc1N1CSC2=C(C#N)C(c3cc(OC)c(OC)cc3OC)CC(=O)N2C1", "note": "(configuration not stated)", "GFP activation": "inactive: 0%"},
      {"smiles": "O=C(COC(=O)c1cn(-c2ccccc2)nc1-c1ccc(F)cc1)Nc1ncc(Cl)cc1Cl", "Potency": "inconclusive: 31.6 µM [activator, single point]"},
      {"smiles": "COCCNC(=O)/C(C#N)=C/C=C/c1ccccc1[N+](=O)[O-]", "Potency": "inconclusive: 20 µM [activator, single point]"},
      {"smiles": "NC(=O)CC(NC(=O)Cc1cccc2ccccc12)c1ccc(NCCOc2ccccc2)c([N+](=O)[O-])c1", "note": "(configuration not stated)", "Potency": "inconclusive: 35.5 µM [activator, partial curve, poor fit]"},
      {"smiles": "COc1ccc(/C=C/C(=O)Nc2ccc3nc(N4CCC(C)CC4)cc(C)c3c2)cc1", "Potency": "active: 22.4 µM"},
      {"smiles": "Cn1c(-c2sc(=S)n(-c3ccccc3)c2N)nc2ccccc21", "Potency": "inconclusive: 35.5 µM [activator, single point]"},
      {"smiles": "COc1ccc(/C=C/C(=O)Nc2nc(-c3cccs3)ns2)cc1OC", "Potency": "inconclusive: 35.5 µM [activator, single point]"},
      {"smiles": "CCOc1cc(/C=C\\[N+](=O)[O-])ccc1OCC(=O)Nc1ccccc1C", "Potency": "inconclusive: 5.62 µM [activator, single point]"},
      {"smiles": "COc1ccc(OC)c(S(=O)(=O)Nc2cccc(-c3ccc(N4CCCCC4)nn3)c2)c1", "Potency": "inconclusive: 17.8 µM [activator, single point]"},
      {"smiles": "Cc1ccc(OCC(=O)N/N=C/c2cn(C)c3ccccc23)cc1", "GFP activation": "inactive: -0.0303%"},
      {"smiles": "Cc1cccc(NC(=O)CCS(=O)(=O)c2cc(Br)cc3c2N(C(=O)C2CC2)CC3)c1", "Potency": "inconclusive: 35.5 µM [activator, single point]"},
      {"smiles": "Cc1ccc(C(c2c(O)nc3n(c2=O)CCS3)c2c(O)nc3n(c2=O)CCS3)cc1", "GFP activation": "inactive: -1.28%"},
      {"smiles": "Cc1ccc(N/C=C2/Sc3ccccc3NC2=O)cc1", "Potency": "inconclusive: 35.5 µM [activator, single point]"},
      {"smiles": "O=C(/C=C/c1ccc2ccccc2n1)c1cc(Br)ccc1O", "Potency": "inconclusive: 31.6 µM [activator, single point]"},
      {"smiles": "CCCNC(=O)c1ccc2c(=O)c(O)c(-c3ccc(OC)cc3)[nH]c2c1", "GFP activation": "inactive: 0.524%"},
      {"smiles": "CCc1n[nH]c(=S)n1/N=C/c1ccccc1OCc1ccc(Cl)cc1", "GFP activation": "inactive: 0%"},
      {"smiles": "Cc1ccc(-c2nc(SCC(=O)NCC3CCCO3)c(-c3ccc(C)cc3)[nH]2)cc1", "note": "(configuration not stated)", "Potency": "inconclusive: 35.5 µM [activator, single point]"},
      {"smiles": "NC(=O)CC(NC(=O)Cc1cccc2ccccc12)c1ccc(NCc2ccccc2)c([N+](=O)[O-])c1", "note": "(configuration not stated)", "Potency": "inconclusive: 35.5 µM [activator, single point]"},
      {"smiles": "Cc1nnc(N2CCN(C(=O)Nc3cccc(C(F)(F)F)c3)CC2)c2nn(-c3ccccc3)c(C)c12", "Potency": "inconclusive: 31.6 µM [activator, single point]"},
      {"smiles": "COc1cccc(/C=N/Nc2nc(Nc3ccccc3)nc(-n3nc(C)cc3C)n2)c1O", "Potency": "active: 2.51 µM"},
      {"smiles": "CCN1C(=O)C(CC(=O)Nc2cccc(C(C)=O)c2)S/C1=N\\c1ccccn1", "note": "(configuration not stated)", "Potency": "inconclusive: 25.1 µM [activator, single point]"},
      {"smiles": "O=C(CSc1nc2c([nH]c3ccccc32)c(=O)n1-c1ccccc1)N1CCCC1", "GFP activation": "inactive: 0.833%"},
      {"smiles": "CC(=O)Nc1ccc(S(=O)(=O)NC(CC(=O)N(C)Cc2ccccc2)C(C)C)cc1", "note": "(configuration not stated)", "GFP activation": "inactive: -1.03%"},
      {"smiles": "Cc1ccc(-n2sc3ccccc3c2=O)cc1", "GFP activation": "inactive: 0%"},
      {"smiles": "Cc1cccc(NC(=O)Cn2cc(C(=O)c3ccco3)c3ccccc32)c1C", "Potency": "inconclusive: 35.5 µM [activator, single point]"},
      {"smiles": "Cc1cccn2c(=O)cc(COc3cccc(NC(=O)c4ccccc4F)c3)nc12", "Potency": "inconclusive: 28.2 µM [activator, single point]"},
      {"smiles": "CC1OC(Nc2ccc(N=Nc3ccccc3)cc2)C(O)C(O)C1O", "note": "(configuration not stated)", "GFP activation": "inactive: -0.306%"},
      {"smiles": "O=C(Nc1ccc(O)c(-c2nc3ccccc3o2)c1)c1ccc(Br)cc1", "Potency": "inconclusive: 31.6 µM [activator, single point]"},
      {"smiles": "O=C(Oc1cccc2cccnc12)c1cccs1", "Potency": "inconclusive: 7.08 µM [activator, partial curve]"},
      {"smiles": "CN(C)C=Nc1ccccc1C1C=NNC1=O", "note": "(configuration not stated)", "GFP activation": "inactive: 0.0852%"},
      {"smiles": "Cc1ccc(CNC(=O)CSc2nnc(C)c3c(C)n(-c4ccccc4)nc23)cc1", "GFP activation": "inactive: 4.1%"},
      {"smiles": "Cc1ccc2c(nc3s/c(=C/c4cccs4)c(=O)n32)c1C", "Potency": "inconclusive: 31.6 µM [activator, single point]"},
      {"smiles": "O=C(NCc1ccncc1)C(F)(F)C(F)(F)C(=O)NCc1ccncc1", "GFP activation": "inactive: -0.952%"},
      {"smiles": "O=C(NCc1ccccc1C(F)(F)F)C1CC(c2ccc(C(F)(F)F)cc2)=NO1", "note": "(configuration not stated)", "Potency": "inconclusive: 31.6 µM [activator, single point]"},
      {"smiles": "O=C(CSC1=NCCN1)Nc1cccc([N+](=O)[O-])c1", "Potency": "inconclusive: 25.1 µM [activator, single point]"},
      {"smiles": "Cc1ccc(/C=C(\\C#N)C(=O)Nc2cccc(Cl)c2)o1", "Potency": "inconclusive: 31.6 µM [activator, single point]"}
    ]}
  ]
}
